According to paper PMC8744269:
Results are given in words; binding and its absence hold for the method and conditions named. For part of these data: Binding seen in cells or lysates may run through a third protein. Some results given as binding are weak or reduced against the parent protein; the word gives no strength.

Legend:
[1] = molecular target: VSV-M-flag (Vesicular stomatitis Indiana virus) (UniProt P03519); experiment: co-IP
[2] = molecular target: M protein of Sendai virus (SeV), pGBKT7 bait (Sendai virus) (UniProt O57299); experiment: two-hybrid
[3] = molecular target: M protein of human respiratory syncytial virus (HRSV), pGBKT7 bait (Human respiratory syncytial virus) (UniProt Q4KRW7); experiment: two-hybrid
[4] = molecular target: M protein of measles virus (MeV), pGBKT7 bait (Measles virus) (UniProt Q9W850); experiment: two-hybrid
[5] = molecular target: T1, RSV M2-1 protein (RSV) (UniProt P04545); experiment: two-hybrid
T1 sequence: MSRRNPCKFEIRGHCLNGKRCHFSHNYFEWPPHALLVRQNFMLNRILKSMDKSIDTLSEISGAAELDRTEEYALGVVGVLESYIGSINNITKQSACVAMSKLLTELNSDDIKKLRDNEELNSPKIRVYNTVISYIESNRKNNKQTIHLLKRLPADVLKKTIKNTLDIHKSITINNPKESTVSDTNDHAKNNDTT

“endogenous SLD5 of 293 T cells (from UniProt Q9BRT9 1-223)” was tested, and the binding [1] was “binds”.

With “human SLD5 fused to the pGADT7 vector (prey) (from UniProt Q9BRT9 1-223)” the binding [2] was “binds”, the binding [3] was “no binding” and the binding [4] was “binds”. For the same substance, the binding [5] was “binds”.

In the case of “human SLD5 expressed from PCDH-SLD5 (from UniProt Q9BRT9 1-223)”, the binding [1] was “binds”.
